The full ranking holds about 18,000 sequences; the median of “TetR repression strength (sort-seq, GFP reporter)” is about 0.23, and the highest 2% start at about 0.68. The list shows a part of the results.
Molecular target: TetR (class B, Tn10) (UniProt P04483)
Experiment: TetR repression strength (sort-seq, GFP reporter) (relative to tetO2 = 1); higher = stronger repression
Conditions: E. coli
Method in brief: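 Escherichia coli SIG10-MAX cells carried a low-copy plasmid library in which eight operator positions were randomized between a constitutive promoter and sfGFP, and TetR was expressed constitutively. After 5 h of growth at 37 °C in LB with 50 µg/mL chloramphenicol, 10^6 cells were FACS-sorted into 13 fluorescence bins, and each bin was Illumina-sequenced. Repression strength was the top bin index plus one minus the read-weighted mean bin, divided by the value for the unaltered operator. Across three independent transformations, only library members with ≥30 reads in every replicate and a CV ≤0.5 were averaged.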

UniProt P04483, sequence (P04483 whole entry): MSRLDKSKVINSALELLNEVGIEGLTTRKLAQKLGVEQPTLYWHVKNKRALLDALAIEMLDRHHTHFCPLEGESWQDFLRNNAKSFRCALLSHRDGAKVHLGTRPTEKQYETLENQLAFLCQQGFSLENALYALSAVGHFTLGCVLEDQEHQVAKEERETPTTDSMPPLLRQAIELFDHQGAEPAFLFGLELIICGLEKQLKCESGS

In order of falling TetR repression strength:
1. TCCCTATCAGTGGAAGAGA  0.722
2. TCCCTATAAGTTACTGAGA  0.711
3. TCCCCGTCAGTCTCGGAGA  0.642
4. TCCCGGGCAGTCCCTGAGA  0.564
5. TCCCCCGGAGTCAGCGAGA  0.533
6. TCCCTTGCAGTGTAAGAGA  0.524
7. TCCCATGAAGTTGTAGAGA  0.515
8. TCCCGTTCAGTTGCTGAGA  0.512
9. TCCCGTTAAGTTTAAGAGA  0.504
10. TCCCGAAGAGTGATAGAGA  0.499
11. TCCCAGAAAGTCAACGAGA  0.478
12. TCCCTGTCAGTGGTAGAGA  0.476
13. TCCCGGACAGTTTGGGAGA  0.473
14. TCCCCCGCAGTACGAGAGA  0.467
15. TCCCTTAAAGTGTCGGAGA  0.46
16. TCCCTGTCAGTTTGGGAGA  0.459
17. TCCCAAGCAGTGACAGAGA  0.432
18. TCCCTGCAAGTAGAGGAGA  0.42
19. TCCCTATAAGTATTAGAGA  0.419
20. TCCCGTATAGTCCTTGAGA  0.415
21. TCCCACCTAGTGGTGGAGA  0.406
22. TCCCACCAAGTGAAAGAGA  0.405
23. TCCCTCTTAGTCCCGGAGA  0.4
24. TCCCGTTAAGTGGGAGAGA  0.398
25. TCCCTACCAGTGTTTGAGA  0.396
26. TCCCTGGGAGTCCATGAGA  0.395
27. TCCCGCGGAGTGACGGAGA  0.38
28. TCCCGGCGAGTCAATGAGA  0.374
29. TCCCAGGAAGTGATAGAGA  0.373
30. TCCCCGGCAGTACGTGAGA  0.372
31. TCCCAGCCAGTCCGGGAGA  0.371
32. TCCCGTGGAGTTTGTGAGA  0.352
33. TCCCGAAGAGTTGTCGAGA  0.35
34. TCCCATCCAGTGGCGGAGA  0.348
35. TCCCTTCGAGTAATCGAGA  0.34
36. TCCCTTCAAGTACAAGAGA  0.33
37. TCCCAGTCAGTTCTGGAGA  0.329
38. TCCCAATTAGTCCTCGAGA  0.326
39. TCCCCGGGAGTGAAAGAGA  0.324
40. TCCCTACTAGTAGATGAGA  0.317
41. TCCCCCATAGTCAGGGAGA  0.312
42. TCCCTCTGAGTATCTGAGA  0.311
43. TCCCGGAAAGTGGAAGAGA  0.311
44. TCCCATCCAGTTACTGAGA  0.311
45. TCCCCCTCAGTTCATGAGA  0.305
46. TCCCTGAAAGTAGCAGAGA  0.302
47. TCCCTAAAAGTGCGTGAGA  0.299
48. TCCCGATTAGTTTGCGAGA  0.299
49. TCCCTAGGAGTAGTAGAGA  0.298
50. TCCCATAGAGTGAACGAGA  0.295
51. TCCCAAGTAGTCACGGAGA  0.295
52. TCCCATCGAGTGCCCGAGA  0.294
53. TCCCATCGAGTGGCTGAGA  0.294
54. TCCCTGGGAGTAATTGAGA  0.294
55. TCCCAACAAGTCGCAGAGA  0.281
56. TCCCAATAAGTCGGTGAGA  0.279
57. TCCCTTGTAGTAATGGAGA  0.273
58. TCCCGCTTAGTGTGGGAGA  0.271
59. TCCCCGGGAGTCGGAGAGA  0.267
60. TCCCCTAAAGTGCGCGAGA  0.266
61. TCCCCGGGAGTGTGTGAGA  0.264
62. TCCCCATGAGTACCTGAGA  0.264
63. TCCCGGTTAGTCGCGGAGA  0.262
64. TCCCGTGAAGTCCCGGAGA  0.26
65. TCCCCGCTAGTTGTAGAGA  0.253
66. TCCCGAGGAGTGTGCGAGA  0.252
67. TCCCATGGAGTTAATGAGA  0.251
68. TCCCGCAAAGTAGAGGAGA  0.248
69. TCCCTGCCAGTATGCGAGA  0.247
70. TCCCGGTGAGTTAAAGAGA  0.246
71. TCCCGTCAAGTGGAAGAGA  0.239
72. TCCCGGATAGTTATGGAGA  0.238
73. TCCCTCGGAGTTGTCGAGA  0.237
74. TCCCGCGGAGTCCACGAGA  0.235
75. TCCCGGTCAGTGGGAGAGA  0.233
76. TCCCTTCAAGTGGACGAGA  0.23
77. TCCCATGCAGTCTACGAGA  0.226
78. TCCCTAGTAGTTTGAGAGA  0.225
79. TCCCCTACAGTACGGGAGA  0.225
80. TCCCTGGTAGTCACGGAGA  0.224
81. TCCCCCATAGTGCGCGAGA  0.219
82. TCCCCACCAGTTGTCGAGA  0.213
83. TCCCAGACAGTGATGGAGA  0.213
84. TCCCTGACAGTCTCGGAGA  0.212
85. TCCCCCGGAGTTGACGAGA  0.207
86. TCCCATCGAGTTTCTGAGA  0.207
87. TCCCCTCTAGTACGTGAGA  0.207
88. TCCCATCCAGTAGTCGAGA  0.2
89. TCCCTTTGAGTGTGGGAGA  0.194
90. TCCCTACGAGTCGGGGAGA  0.193
91. TCCCGCGGAGTCTGCGAGA  0.191
92. TCCCTCTAAGTAGTTGAGA  0.188
93. TCCCGCTTAGTCTCGGAGA  0.187
94. TCCCGGAAAGTATAAGAGA  0.184
95. TCCCTGTGAGTACTCGAGA  0.183
96. TCCCATTGAGTCTAGGAGA  0.177
97. TCCCCGCCAGTTCATGAGA  0.174
98. TCCCCTTAAGTTAAGGAGA  0.173
99. TCCCGTTCAGTAGTGGAGA  0.169
100. TCCCTTAGAGTCGTGGAGA  0.168
101. TCCCAGTCAGTGCCAGAGA  0.168
102. TCCCTCAGAGTGTGGGAGA  0.165
103. TCCCTTATAGTCGTGGAGA  0.162
104. TCCCATACAGTAGGTGAGA  0.158
105. TCCCAGGGAGTCAAGGAGA  0.157
106. TCCCCGCAAGTGCACGAGA  0.152
107. TCCCTTGAAGTATCGGAGA  0.146
108. TCCCTGCGAGTTCGGGAGA  0.142
109. TCCCTGCCAGTTCGTGAGA  0.128
110. TCCCGTTCAGTAAGGGAGA  0.124
111. TCCCTCTTAGTGGGTGAGA  0.123
112. TCCCATAAAGTACGCGAGA  0.12
113. TCCCTGAAAGTTTTTGAGA  0.117
114. TCCCGGGTAGTATCGGAGA  0.108
115. TCCCAGACAGTGGAAGAGA  0.107
116. TCCCAGCGAGTAACCGAGA  0.104
117. TCCCCCACAGTCGTGGAGA  0.0987
118. TCCCGGAAAGTGGTAGAGA  0.0957
119. TCCCGCAGAGTTAACGAGA  0.0942
120. TCCCTGTCAGTATCAGAGA  0.0926
121. TCCCGCTAAGTACTCGAGA  0.0895
122. TCCCGAGTAGTATGCGAGA  0.0845
123. TCCCGAGGAGTCGGCGAGA  0.0782
124. TCCCTCCAAGTGTAGGAGA  0.056
125. TCCCAGGTAGTACCCGAGA  0.0415
126. TCCCGTATAGTTACGGAGA  0.0141
127. TCCCGGGGAGTTAAGGAGA  0.00806
128. TCCCACACAGTTGGTGAGA  0.00196
129. TCCCGAATAGTCTTCGAGA  0
130. TCCCCAGTAGTAGGTGAGA  0
